# This is one part of the list. Cleavage of a single-stranded DNA pool by Rep nickase domains was read by sequencing (1 h at 37 °C, 3 µM enzyme); the outer parts of the 90-letter strands are left off. The score is log2 (uncut reads / reads without enzyme); more negative means more cut, near 0 not cut, and no call is made. Reads are scaled to the total; values above 0 arise when much of the pool is cut.
# Tests used:
# Assay in all cases: uncleaved DNA left, log2 of reads against the no-enzyme library (log2 ratio); higher = less cleavage (more negative = more Rep cleavage of the k-mer); sequences stand for … in CTCGTCCG…ACCGGAGA
# [1] = test system: T1, Rep nickase domain of Muscovy duck circovirus
# T1 sequence (protein, residues 1-111, tag omitted): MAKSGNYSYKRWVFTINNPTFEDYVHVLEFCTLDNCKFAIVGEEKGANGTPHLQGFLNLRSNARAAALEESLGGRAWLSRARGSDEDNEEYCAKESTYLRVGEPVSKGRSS
# Experimental: (§1)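 A pool of 90-nt single-stranded DNAs with seven random bases just before the constant AC of the nick site (name = the seven bases) was cut by 3 µM recombinant His6-SUMO-tagged Rep nickase domain (300 nM DNA, 50 mM HEPES pH 8.0, 50 mM NaCl, 1 mM MnCl2, 1 h, 37 °C, three replicates). Uncut DNA was amplified and sequenced.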
# [2] = test system: T2, Rep nickase domain of banana bunchy top virus
# T2 sequence (protein, residues 1-94, tag omitted): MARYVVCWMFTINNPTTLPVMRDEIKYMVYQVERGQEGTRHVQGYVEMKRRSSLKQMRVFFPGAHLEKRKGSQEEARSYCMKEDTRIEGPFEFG
# Experimental: as §1
# [3] = test system: T3, Rep nickase domain of cabbage leaf curl virus
# T3 sequence (protein, residues 1-116, tag omitted): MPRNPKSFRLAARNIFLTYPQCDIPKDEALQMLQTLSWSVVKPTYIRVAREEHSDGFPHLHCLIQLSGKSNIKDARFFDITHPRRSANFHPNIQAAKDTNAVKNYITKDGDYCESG
# Experimental: as §1
# [4] = test system: T4, Rep nickase domain of chickpea chlorotic dwarf virus
# T4 sequence (protein, residues 1-124, tag omitted): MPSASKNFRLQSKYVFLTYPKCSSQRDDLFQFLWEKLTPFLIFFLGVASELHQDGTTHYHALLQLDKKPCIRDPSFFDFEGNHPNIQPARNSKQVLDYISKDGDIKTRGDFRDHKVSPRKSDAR
# Experimental: as §1
# [5] = test system: T5, Rep nickase domain of faba bean necrotic yellows virus
# T5 sequence (protein, residues 1-98, tag omitted): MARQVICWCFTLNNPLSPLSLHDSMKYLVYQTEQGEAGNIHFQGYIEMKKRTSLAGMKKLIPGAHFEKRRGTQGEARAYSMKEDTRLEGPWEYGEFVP
# Experimental: as §1
# [6] = test system: T6, Rep nickase domain of maize striate mosaic virus
# T6 sequence (protein, residues 1-117, tag omitted): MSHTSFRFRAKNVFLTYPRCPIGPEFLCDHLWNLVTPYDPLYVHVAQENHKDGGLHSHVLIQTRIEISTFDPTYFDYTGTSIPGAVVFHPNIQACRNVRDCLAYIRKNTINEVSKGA
# Experimental: as §1
# [7] = test system: T7, Rep nickase domain of porcine circovirus 2
# T7 sequence (protein, residues 2-116, tag omitted): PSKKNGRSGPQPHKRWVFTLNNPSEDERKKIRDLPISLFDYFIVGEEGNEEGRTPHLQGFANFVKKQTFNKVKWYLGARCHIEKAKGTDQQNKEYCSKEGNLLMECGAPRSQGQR
# Experimental: as §1
# [8] = test system: T8, Rep nickase domain of tomato golden mosaic virus
# T8 sequence (protein, residues 1-124, tag omitted): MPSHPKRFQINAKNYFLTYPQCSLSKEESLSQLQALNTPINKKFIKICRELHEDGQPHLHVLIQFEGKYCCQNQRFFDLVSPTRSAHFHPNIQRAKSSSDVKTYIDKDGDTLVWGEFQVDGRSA
# Experimental: as §1
# [9] = test system: T9, Rep nickase domain of tomato yellow leaf curl virus
# T9 sequence (protein, residues 1-136, tag omitted): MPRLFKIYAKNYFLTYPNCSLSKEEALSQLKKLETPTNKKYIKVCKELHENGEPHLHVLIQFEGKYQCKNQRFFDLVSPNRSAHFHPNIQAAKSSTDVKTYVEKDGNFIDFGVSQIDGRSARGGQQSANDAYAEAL
# Experimental: as §1
# [10] = test system: T10, Rep nickase domain of wheat dwarf virus
# T10 sequence (protein, residues 1-137, tag omitted): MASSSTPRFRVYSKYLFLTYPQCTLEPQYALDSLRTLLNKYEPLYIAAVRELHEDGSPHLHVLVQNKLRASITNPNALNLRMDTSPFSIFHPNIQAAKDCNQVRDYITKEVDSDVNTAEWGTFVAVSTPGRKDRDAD
# Experimental: as §1
Sequence,uncleaved DNA left (log2) [1],uncleaved DNA left (log2) [2],uncleaved DNA left (log2) [3],uncleaved DNA left (log2) [4],uncleaved DNA left (log2) [5],uncleaved DNA left (log2) [6],uncleaved DNA left (log2) [7],uncleaved DNA left (log2) [8],uncleaved DNA left (log2) [9],uncleaved DNA left (log2) [10]
GGTCTCG,0.0507,0.138,-0.131,0.269,0.0874,0.308,0.0148,0.0727,0.108,0.0506
GAGCGAA,0.0288,0.0494,-0.0429,0.46,0.0325,0.832,-0.0511,0.0615,-0.0171,0.0533
CTCGTTT,-0.062,-0.116,-0.0557,-1.76,0.111,-0.425,-0.763,-0.0405,0.052,0.0157
TGTATGC,0.0286,-0.0398,-0.168,-0.354,0.00235,-0.957,0.0689,-0.174,0.0287,-0.107
TCTTTAG,0.0433,-0.0819,-0.404,-0.621,0.0739,-1.15,0.142,-0.00119,0.112,-0.00215
CCCCTTG,0.00999,-0.125,-0.714,-1.57,0.00596,-1.09,-0.23,-0.148,-0.259,-0.234
CAATCCC,0.0215,-0.0497,-2.32,-2.65,-0.096,-0.403,-0.166,-0.826,0.0587,-1.01
TATTCCG,-0.134,-0.0285,-0.863,-0.0743,0.0596,-0.972,0.0633,-0.112,-0.0947,-0.0574
ATTAATA,-0.149,-0.0689,-0.237,-1.77,-0.0181,-0.67,-0.201,0.022,-0.0314,-0.0653
TCGACCC,0.0207,0.0217,0.247,0.35,0.0389,0.432,-0.291,-0.0775,0.00305,-0.0968
CCCTGTT,-2.86,-0.337,-0.962,-2.76,-0.0783,-0.753,-3.2,-0.288,-0.315,-0.605
TTGCCGG,0.00481,0.00738,0.246,0.79,-0.0626,0.537,0.0404,-0.0141,-0.096,-0.0835
AAACACC,-0.0765,-0.0157,-0.0968,-1.06,0.0419,-0.576,-0.168,-0.0034,-0.0563,-0.0585
TCGTTAC,-0.0175,-0.165,-0.00893,-1.49,-0.187,-0.531,-0.0639,-0.173,-0.167,-0.208
ATGGGAG,0.0837,0.0301,-0.196,0.456,0.0165,-0.313,0.261,0.00828,0.0135,-0.0558
TTTTGTG,0.00449,-0.0924,-0.621,0.0853,0.0897,-0.934,0.196,-0.0597,0.0776,-0.14
GATACTG,0.0251,0.0742,0.11,0.971,0.0219,1.34,0.163,0.132,-0.00764,0.111
AGGACCC,0.0447,0.0366,0.44,1.33,0.00461,1.54,0.0765,-0.0613,-0.0665,0.0589
GATCAAT,0.203,0.249,0.522,0.906,0.085,1.5,-0.0841,0.167,0.253,0.341
GGTTAGC,0.0673,0.127,0.358,0.859,0.05,0.934,0.17,0.0526,0.0642,0.0167
GCTCTGG,-0.0228,-0.0864,0.0513,0.476,0.0128,-0.152,0.0738,-0.133,-0.0039,-0.0885
TAGCTGG,0.0879,0.0314,0.291,1.03,0.091,0.968,0.257,0.0826,-0.0269,0.139
AGCAACT,0.0591,0.0892,0.159,0.174,0.0606,1.51,-0.101,0.0646,0.00158,0.0589
CTCGGCC,0.00976,-0.0457,0.0151,0.0429,0.143,-0.521,0.132,0.0669,-0.000935,0.0402
GATAACA,0.0126,0.178,0.0399,-1.09,0.028,0.73,0.125,-0.041,0.00429,0.05
CTCTAAG,0.113,0.131,-0.782,-0.218,0.126,-1.16,0.273,0.104,0.146,0.0312
CTTAACC,-0.118,0.159,-0.268,-1.73,0.132,-0.762,-0.581,0.013,0.0911,0.0915
AGGGAGC,-0.0831,-0.0347,0.261,1.18,-0.00565,0.962,0.205,0.0819,-0.0439,-0.0129
ACCCGAA,0.0504,-0.0594,0.14,0.399,-0.0386,-0.48,-0.0241,0.0174,-0.153,0.102
CCTCCGA,-0.0017,-0.0308,-0.113,-0.151,0.0638,-0.825,0.0945,-0.00108,-0.06,-0.0597

# — the supplement of paper PMC7826260
